The values below come from US20250312444A1 (BEIJING TUO JIE BIOPHARMACEUTICAL, published 2025).

In assay [1] the target is mouse serum albumin (mSA) (mouse). Description: SPR Biacore T200, antibody captured on protein A, albumin as analyte.
For assay [2], the target named is T1, monkey serum albumin (CySA) (monkey).
T1 chain: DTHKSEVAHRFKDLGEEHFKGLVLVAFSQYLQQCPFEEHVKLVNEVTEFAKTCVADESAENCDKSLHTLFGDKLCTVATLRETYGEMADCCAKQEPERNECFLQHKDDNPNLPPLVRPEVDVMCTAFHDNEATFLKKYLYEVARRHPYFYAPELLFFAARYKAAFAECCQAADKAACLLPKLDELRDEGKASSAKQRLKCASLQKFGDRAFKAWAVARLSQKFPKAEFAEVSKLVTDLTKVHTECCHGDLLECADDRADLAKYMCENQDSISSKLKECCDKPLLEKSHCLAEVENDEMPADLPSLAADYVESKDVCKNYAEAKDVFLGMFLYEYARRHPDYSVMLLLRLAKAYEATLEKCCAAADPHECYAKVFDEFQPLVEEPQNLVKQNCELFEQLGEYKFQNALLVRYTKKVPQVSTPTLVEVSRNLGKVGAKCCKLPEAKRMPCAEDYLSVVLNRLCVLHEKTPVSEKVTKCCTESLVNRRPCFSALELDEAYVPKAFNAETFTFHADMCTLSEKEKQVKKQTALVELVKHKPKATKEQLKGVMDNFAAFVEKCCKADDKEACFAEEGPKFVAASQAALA
Described as above.

The target of assay [3] is human serum albumin (HSA) (human). Described as above.
The target in assay [4] is mouse serum albumin (mSA) (mouse). Description: ELISA, albumin coated, anti-human Fc detection.
Assay [5] has as its target T1, monkey serum albumin (CySA). Kind of assay: ELISA, albumin coated, anti-human Fc detection. In general terms: An ELISA detects its analyte on a solid surface through an enzyme-linked reagent.
In assay [6] the target is human serum albumin (HSA) (human). Description: ELISA, albumin coated, anti-human Fc detection.

B1: #9aHSA-IgG1Fc (Fc fusion)
heavy: DVQLVESGGGSVQAGGSLRLSCAAAEYTYLNSCLGWFRQAPGKEREGVATIYMVGGSTFYADSVKGRFTISRDNAKNTVYLMMNSLKPEDTAMYYCAAGSPARCLRRDPTTFNYWGQGTQVTVSSASGS[human IgG1 Fc left out]
notes: VHH, ASGS linker, human IgG1-Fc; expressed in HEK293; also called #9a anti-HSA antibody fused with human IgG1-Fc
B1: the Kd came to 14 nM in assay [1], 0.493 nM in assay [2] and 0.313 nM in assay [3]. In addition, the koff in assay [1] is 31 s⁻¹; in assay [2], 4.4e-05 s⁻¹; in assay [3], 2.64e-05 s⁻¹. Also, the values for the kon in assay [2] and in assay [3] were 89200 M⁻¹ s⁻¹ and 84300 M⁻¹ s⁻¹, respectively. For the same molecule, the concentration giving a half-maximal response (EC50) in assay [4] was determined as 0.0412 µg/mL; in assay [5], 0.0386 µg/mL; in assay [6] it was 0.046 µg/mL.

B2: #7aHSA-IgG1Fc (Fc fusion)
heavy: HVQLVESGGGSVQAGGSLRVSCVASGNTYLTSCMGWFRQAPGKEREGVASIYTVGGSTFYTNSVKGRFTISRDNAKNTVYLQMNSLQPEDTAMYYCAAGSPARCRLRDPTTFDYWGQGTQVTVSSASGS[human IgG1 Fc left out]
notes: VHH, ASGS linker, human IgG1-Fc; expressed in HEK293; also called #7aHSA fused with human IgG1-Fc
Consider B2, for which the dissociation constant (Kd) in assay [1] was 7.44 nM; in assay [2], 1.27 nM; in assay [3], 1.76 nM. The values for the koff in assay [1], in assay [2] and in assay [3] were 0.000347 s⁻¹, 5.7e-05 s⁻¹ and 7.55e-05 s⁻¹, respectively. The kon was 46600 M⁻¹ s⁻¹ in assay [1], 44900 M⁻¹ s⁻¹ in assay [2] and 42900 M⁻¹ s⁻¹ in assay [3]. In addition, the values for the 50% effective concentration (EC50) in assay [4], in assay [5] and in assay [6] were 0.045 µg/mL, 0.0426 µg/mL and 0.0455 µg/mL, respectively.

The Kd is the free concentration of one partner at which half of the binding sites on the other are occupied at equilibrium, for simple one-to-one binding. As a reminder, the koff is the first-order rate constant of dissociation. The kon is a measure of how fast the partners come together. In general, EC50 refers to the midpoint of the concentration-response curve.
